Hit rate of the full screen: of about 310,000 compounds, about 14,000 (4.5%) showed an effect of 50% or more. The effect is printed as a negative number. This is one part of the list.
Each compound was assayed against human ether-à-go-go-related gene (hERG) potassium channel (human, UniProt Q12809) (assay: primary screen, population patch clamp on CHO cells stably expressing hERG).
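Also: peak tail current of the secondary pulse compared with the same well before compound.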

Sequence of human ether-à-go-go-related gene (hERG) potassium channel (Q12809 whole entry, looked up): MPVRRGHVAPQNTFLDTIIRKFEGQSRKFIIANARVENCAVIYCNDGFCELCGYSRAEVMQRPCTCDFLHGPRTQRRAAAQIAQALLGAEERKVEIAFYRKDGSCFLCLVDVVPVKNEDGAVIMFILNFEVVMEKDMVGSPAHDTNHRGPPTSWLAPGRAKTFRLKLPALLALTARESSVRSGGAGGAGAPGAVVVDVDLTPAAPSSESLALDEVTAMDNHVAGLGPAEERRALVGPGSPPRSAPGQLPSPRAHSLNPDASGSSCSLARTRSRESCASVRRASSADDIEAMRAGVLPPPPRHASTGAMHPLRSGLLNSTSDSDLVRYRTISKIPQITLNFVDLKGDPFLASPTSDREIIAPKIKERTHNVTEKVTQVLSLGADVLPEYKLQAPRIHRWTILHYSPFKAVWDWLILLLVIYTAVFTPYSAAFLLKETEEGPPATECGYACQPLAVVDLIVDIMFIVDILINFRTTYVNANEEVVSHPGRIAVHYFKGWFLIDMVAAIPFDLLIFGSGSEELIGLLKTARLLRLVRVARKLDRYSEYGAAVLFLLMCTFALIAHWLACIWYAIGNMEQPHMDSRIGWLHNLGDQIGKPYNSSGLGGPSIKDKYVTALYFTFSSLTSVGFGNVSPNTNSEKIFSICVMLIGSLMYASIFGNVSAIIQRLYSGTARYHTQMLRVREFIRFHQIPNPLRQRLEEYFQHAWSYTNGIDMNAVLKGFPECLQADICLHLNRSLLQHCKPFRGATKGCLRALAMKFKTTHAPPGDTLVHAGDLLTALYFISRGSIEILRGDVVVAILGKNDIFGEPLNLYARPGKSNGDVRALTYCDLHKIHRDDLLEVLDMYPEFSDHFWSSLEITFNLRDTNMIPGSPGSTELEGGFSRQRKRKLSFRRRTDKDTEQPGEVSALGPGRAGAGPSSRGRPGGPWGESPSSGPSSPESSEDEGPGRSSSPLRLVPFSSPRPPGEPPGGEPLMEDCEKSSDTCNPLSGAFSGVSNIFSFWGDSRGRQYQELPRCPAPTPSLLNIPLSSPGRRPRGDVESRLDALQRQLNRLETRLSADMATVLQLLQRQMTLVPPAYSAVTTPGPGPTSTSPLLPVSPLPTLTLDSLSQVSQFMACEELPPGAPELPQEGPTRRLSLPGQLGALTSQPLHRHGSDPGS

| SMILES | hERG current change (%, negative = inhibition) at 10uM |
| --- | --- |
| O=C(COC(=O)c1c(Cl)cccc1Cl)NCC1CCCO1 (stereo not shown) | 0.579% |
| O=C(NCC(=O)N1CCN(Cc2ccccc2)CC1)c1ccc(Cl)cc1 | -27.9% |
| CCCCOc1ccccc1C(=O)N(Cc1ccc(C)o1)C1CCS(=O)(=O)C1 (stereo not shown) | -33.4% |
| CCn1c(CSCc2ccc(C)cc2)nnc1SCC(=O)NCc1ccccc1 | -42.1% |
| N#CCSc1nnc2c(Cl)cc(Cl)cn12 | 15.5% |
| O=C(C[n+]1ccc(-c2nnc3n2CCC3)cc1)c1ccc(Cl)cc1.[Br-] | 1% |
| CSCCC(NC(=O)c1ccc(Cl)cc1Cl)C(=O)N1CC(C)OC(C)C1 (stereo not shown) | -23.7% |
| Cc1ccc(Cn2ccc(C3CC3)n2)cc1 | 18.2% |
| COc1ccc(-n2cccc2/C=C2\C(=N)N3N=C(c4ccco4)SC3=NC2=O)cc1 | 16.5% |
| COc1ccc(-c2csc(-c3ccccc3)n2)c(OC)c1 | 29.1% |
| CC(C)(C)OC(=O)N1CCC2(CC1)Oc1ccc(F)cc1C(=O)C21CC(c2ccccc2)=NO1 (stereo not shown) | 11.1% |
| CCn1ncc(Br)c1C(=O)Nc1ncc(C)s1 | 7.17% |
| CCCNC(=O)C/C(C)=N/NC(=O)COc1ccc(C)cc1Br | -20.9% |
| Cc1ccc(NS(=O)(=O)c2c(C)[nH]c(=O)[nH]c2=O)cc1F | -37.9% |
| NNC(=O)C12CC3CC(C1)CC(n1ncnn1)(C3)C2 | 14.2% |
| O=C(O)CCCC(=O)Nc1ccc(S(=O)(=O)Nc2nccs2)cc1 | 3.77% |
| Cc1[nH]c2ccccc2c1C(=O)COC(=O)c1cccc(S(=O)(=O)N2CCCCC2)c1 | 6.18% |
| COC(=O)c1ccccc1S(=O)c1snnc1C (stereo not shown) | 19.5% |
| CNC(=O)C1CCN(C(=O)c2ccc(-c3ccccc3)cc2)CC1 | 1.38% |
| O=[N+]([O-])c1cc2c(cc1/C=N/Nc1nc(N3CCCC3)nc(N3CCCC3)n1)OCO2 | -0.497% |
| COc1cnc(-c2ccccn2)nc1Oc1c(C)cccc1C | 6.27% |
| COc1ccc(/C(N)=N/OC(=O)CSc2ccc(C)cc2)cc1 | 7.13% |

| SMILES | hERG current change (%, negative = inhibition) at 10uM |
| --- | --- |
| CCOc1ccc(C(=O)Nc2nc(C)c(C(=O)OC)s2)cc1 | 16.4% |
| COCCNC(=O)C(c1ccc(C)o1)N(CCOC)C(=O)Cn1nnc2ccccc21 (stereo not shown) | 9.53% |
| CCCCCC(=O)NNC1CC(=O)N(c2ccccc2)C1=O (stereo not shown) | -6.15% |
| Cc1ccc(-c2nn3c(=O)c(C)nnc3s2)cc1 | 7.17% |
| COc1ccc(CNC(=O)[C@H](C)N2C(=O)N3CCc4c([nH]c5ccccc45)[C@@]3(C)C2=O)cc1OC | -15.7% |
| Cc1sc2ncnc(SCC(=O)NC(=O)c3cccn3C)c2c1C | 10.8% |
| Cc1c(Cl)cccc1NC(=S)N1CCN(C(=O)C2CCCO2)CC1 (stereo not shown) | 25.8% |
| Cc1cccc(-n2c(-c3ccco3)nc3ccccc3c2=O)n1 | 14.2% |
| COc1cccc(NC(=O)CSc2nn3c(=O)c(C)nnc3s2)c1 | 13.9% |
| Cc1cc(C)c(NC(=O)C2c3ccccc3Oc3ccccc32)c(C)c1 | 5.72% |
| O=C(Nc1nc2ccccc2n1CCN1CCCC1)C1CCCCC1 | -58.6% |
| COC(=O)c1cccc(NC(=O)CCNC(=O)c2ccco2)c1 | 18.8% |
| Cc1cc(C)cc(NC(=O)CSc2ccccc2)c1 | 3.83% |
| Cc1cccc(-n2c(SCc3cc(=O)n4c(C)cccc4n3)nc3[nH]ncc3c2=O)c1 | -26.8% |
| CCOC(=O)c1oc2ccccc2c1CSc1nnc(-c2ccco2)o1 | 9.92% |
| COc1ccccc1NC(=S)NCc1cccnc1 | 9.93% |
| C#CCN(Cc1ccco1)C(=O)c1cc(COc2ccc(F)cc2Cl)on1 | -7.47% |
| O=c1[nH]c(=O)n(-c2cccc3ccccc23)c(O)c1/C=N/N1CCCCC1 | 11.6% |
| COc1cccc([C@@H]2Oc3ccc(OC)cc3C(=O)[C@H]2OC(=O)NCc2ccc3c(c2)OCO3)c1 | -7.43% |
| COc1ccc(-c2ccc(-c3noc(C4CCCCC4)n3)c(OC)n2)cc1 | 8.87% |
| Cc1cccc(OCCC(=O)Nc2cc(S(=O)(=O)N3CCCCC3)ccc2N2CCOCC2)c1 | 6.71% |
| O=C(Nc1ccccc1)N1CCN(c2ccc(F)cc2)CC1 | -7.74% |

| SMILES | hERG current change (%, negative = inhibition) at 10uM |
| --- | --- |
| CCn1cc(-c2cc(C(=O)O)on2)c(C)n1 | 17.7% |
| COc1cc(NC(=O)c2onc(C)c2Cl)c(OC)cc1Cl | 9.96% |
| O=[N+]([O-])c1ccc2c(c1Nc1ccccc1Cl)=NC1(CCCCC1)N=2 | 3.29% |
| CCc1cc2c(=O)c(-c3ccc4c(c3)OCCO4)coc2c(CN2CCCCC2C)c1O (stereo not shown) | 16% |
| CCCOc1ccc(CC(CC(=O)O)(C(=O)O)C(=O)O)cc1 | 13.5% |
| CC1CCN(c2ccc(S(=O)(=O)N3CCC(C)CC3)cc2N)CC1 | 6.3% |
| COc1ccc(CNC(=O)COC(=O)CO/N=C(\C)c2ccc3c(c2)OCO3)cc1 | -19.2% |
| CCCS(=O)(=O)N1CCCC(C(=O)NCCCN(Cc2ccccc2)C(C)C)C1 (stereo not shown) | -7.98% |
| Cc1cccc(C)c1NC(=O)C1CCN(C(=O)c2cccs2)CC1 | 13.9% |
| COC(=O)c1cc(C(=O)N2CCN(C(=O)c3ccco3)CC2)cc([N+](=O)[O-])c1 | -66.7% |
| CC(C)NC(=O)N1CCC(c2nc3ccccc3s2)CC1 | -3.32% |
| CCOc1ccc(S(=O)(=O)N2CCCC(C(=O)Nc3cc(C)cc(C)c3)C2)cc1 (stereo not shown) | 14.6% |
| O=C(C1CCN(c2nnc(-n3cccc3)s2)CC1)N1CCN(Cc2ccc3c(c2)OCO3)CC1 | -68.2% |
| O=C(N/N=C/c1cc(Cl)cc([N+](=O)[O-])c1O)C(O)(c1ccccc1)c1ccccc1 | -53% |
| Cc1cc(NC(=O)Nc2ccc(Cl)cc2)n(C(C)(C)C)n1 | 17.7% |
| COc1ccc(CCN(C)CC(O)c2ccccc2)cc1OC.O=C(O)C(=O)O (stereo not shown) | -32.2% |
| CCOC(=O)[C@H]1[C@H]2COc3ccc(Br)cc3[C@@H]2N2C(=O)c3cc(OC)c(OC)cc3NC(=O)[C@@]12C | -4.84% |
| CCOC(=O)Cn1c(=O)oc2cc(S(=O)(=O)N3CCC(N4CCCCC4)CC3)ccc21 | 5.74% |
| CCOP(=O)(OCC)C(NCc1ccccc1)c1ccc(Br)cc1 (stereo not shown) | -4.68% |
| Cc1cccc(C(C)C)c1-n1nnnc1-c1ccccc1 | -6.28% |
| COc1ccccc1N1CCN(C2CCCC(C)C2)CC1 (stereo not shown) | -4.44% |
| Cl.O=C(O)CCn1c(CO)nc2ccccc21 | 22.1% |

| SMILES | hERG current change (%, negative = inhibition) at 10uM |
| --- | --- |
| Cc1nnc(-c2cnn(C)c2N)n1CCCN(C)C | 16.3% |
| CC1=NN(c2nc(-c3ccc(C)cc3)cs2)C(=O)C1N=Nc1ccc2ccccc2c1 (stereo not shown) | -8.04% |
| CC(C)(O)C#Cc1ccc(CN2CCN(C3CCCC3)C(CCO)C2)cc1 (stereo not shown) | 6.32% |
| CC(=O)N1CCN(Cc2nc3cc([N+](=O)[O-])ccc3n2C)CC1 | -4.94% |
| C=CCNc1nc(C(=O)OCC(=O)c2ccc(C)c([N+](=O)[O-])c2)cs1 | 12.8% |
| Cc1ccc2nc(NC(=O)c3cc(-c4ccco4)nc4ccccc34)sc2c1 | 10.1% |
| Nc1nc(-c2cccs2)cs1 | -0.0742% |
| O=C1CN(C(=O)COC(=O)COc2ccc3c(c2)CCC3)c2ccccc2N1 | 6.66% |
| COC(=O)[C@H]1[C@H]2C[C@H]3c4[nH]c5ccccc5c4CCN3C[C@@H]2CC[C@@H]1O | -12.5% |
| O=C(c1cccs1)c1c[nH]cc1-c1ccccc1 | 11.3% |
| CC(=O)Nc1ccc(NC(=O)CCOc2cc(C)ccc2C)cc1 | 16.2% |
| CCn1ccnc1CN1CCc2c([nH]c3ccccc23)C1C(C)(C)C (stereo not shown) | -59.7% |
| CC(C)(C)OC(=O)NCCCCCc1nnc(SCc2ccccc2F)o1 | -12.4% |
| O=C(N/C(=C\c1ccco1)C(=O)N1CCCC1CO)c1ccccc1 (stereo not shown) | 11.5% |
| CSCCC(NC(=O)c1ccc([N+](=O)[O-])cc1Cl)C(=O)OCC(=O)N1CCN(C(C)=O)CC1 (stereo not shown) | 3.12% |
| O=C(NCCCO)c1ccc(CSc2nc3ccccc3c(=O)[nH]2)cc1 | -18.3% |
| CN(C)c1cccc(C(=O)NNC(=O)CSc2ccccc2)c1 | 19.6% |
| O=C(Nc1cccc(F)c1)c1cc(S(=O)(=O)NCCC2=CCCCC2)ccc1F | 17.4% |
| COc1ccc(/C=N/NC(=O)c2cccnc2)cc1CN1CCc2cc(OC)c(OC)cc2C1C (stereo not shown) | -40.9% |
| COc1ccccc1S(=O)(=O)Cc1ccc(C(=O)NCCN(C)C)o1 | -3.17% |
| O=C(Cc1ccccc1)c1ccc2c(c1)OCCO2 | -1.42% |
| CN1C2CCC1CC(OC(=O)c1ccc(Cl)cc1)(C(=O)O)C2.Cl (stereo not shown) | 1.82% |

Source: PMC4336329 (PLoS ONE, 2015)
